# Reference: the supplement of paper PMC4967469
# IC50 is the fitted dose that halves viability relative to control wells, and lower means more sensitive; where the fit passes the top or lowest dose, that dose stands as a limit. AUC, from the same fit, is the share of area under the viability curve across the 256-fold dose range: 1 means no effect, lower means more sensitive. For part of these data: The top dose, if marked as inferred, comes from the curve model; the source does not state it. For part of these data: Drugs with an entry number were screened twice under separate entries, and the two screens often disagree.
# How the values were obtained:
# Experiment in all cases: Viability of human cancer cell lines after 72 h of drug (GDSC screen)
# JQ1 = compound: Cc1sc2c(c1C)C(c1ccc(Cl)cc1)=N[C@@H](CC(=O)OC(C)(C)C)c1nnc(C)n1-2 [JQ1]
# Method: (§1)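 Human cancer cell lines in 384-well plates, medium with 10% serum, drug for 72 h over a 256-fold dose range (nine 2-fold or five 4-fold steps up to the top dose). Adherent lines were fixed and stained with the nucleic acid dye Syto60, suspension lines read with resazurin; signal relative to control wells, capped at 0 and 100%. One two-parameter sigmoid per drug and line, fitted in a mixed model over all curves with the slope shared within a line.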
# JNJ-26854165 = compound: c1ccc2c(CCNc3ccc(Nc4ccncc4)cc3)c[nH]c2c1 [JNJ-26854165]; details: top dose 10 µM
# Method: as §1
# OSI-906 = compound: C[C@]1(O)C[C@@H](c2nc(-c3ccc4ccc(-c5ccccc5)nc4c3)c3c(N)nccn32)C1 [OSI-906]; details: top dose 2.56 µM; top dose inferred
# Method: as §1
# SB-715992 = compound: Cc1ccc(C(=O)N(CCCN)[C@@H](c2nc3cc(Cl)ccc3c(=O)n2Cc2ccccc2)C(C)C)cc1 [SB-715992]; details: top dose 0.128 µM; top dose inferred
# Method: as §1
# YM155 = compound: COCC[n+]1c2c(n(Cc3cnccn3)c1C)C(=O)c1ccccc1C2=O [YM155]; details: top dose 5.12 µM
# Method: as §1
# JNK Inhibitor VIII = compound: CCOc1nc(NC(=O)Cc2cc(OC)ccc2OC)cc(N)c1C#N [JNK Inhibitor VIII]; details: top dose 10 µM; top dose inferred
# Method: as §1
# FTI-277 = compound: COC(=O)[C@H](CCSC)NC(=O)c1ccc(NC[C@@H](N)CS)cc1-c1ccccc1 [FTI-277]; details: top dose 1.024 µM; top dose inferred
# Method: as §1
# AMG-706 = compound: CC1(C)CNc2cc(NC(=O)c3cccnc3NCc3ccncc3)ccc21 [AMG-706]; details: top dose 2 µM; top dose inferred
# Method: as §1
# NSC-207895 = compound: CN1CCN(c2ccc([N+](=O)[O-])c3no[n+]([O-])c23)CC1 [NSC-207895]; details: top dose 20 µM; top dose inferred
# Method: as §1
# Docetaxel = compound: CC(=O)O[C@@]12CO[C@@H]1C[C@H](O)[C@@]1(C)C(=O)[C@H](O)C3=C(C)[C@@H](OC(=O)[C@H](O)[C@@H](NC(=O)OC(C)(C)C)c4ccccc4)C[C@@](O)([C@@H](OC(=O)c4ccccc4)[C@H]21)C3(C)C [Docetaxel]; details: top dose 0.0125 µM
# Method: as §1
# Belinostat = compound: O=C(/C=C/c1cccc(S(=O)(=O)Nc2ccccc2)c1)NO [Belinostat]; details: top dose 20 µM; top dose inferred
# Method: as §1
# [1] = top dose 1 µM, screen: GDSC drug entry 1218, top dose inferred
# [2] = top dose 2.56 µM, screen: GDSC drug entry 163
Cell Line,AUC (JQ1; [1]),IC50 (JQ1; [1]) [nM],AUC (JQ1; [2]),IC50 (JQ1; [2]) [nM],AUC (JNJ-26854165),IC50 (JNJ-26854165) [nM],AUC (OSI-906),IC50 (OSI-906) [nM],AUC (SB-715992),IC50 (SB-715992) [nM],AUC (YM155),IC50 (YM155) [nM],AUC (JNK Inhibitor VIII),IC50 (JNK Inhibitor VIII) [nM],AUC (FTI-277),IC50 (FTI-277) [nM],AUC (AMG-706),IC50 (AMG-706) [nM],AUC (NSC-207895),IC50 (NSC-207895) [nM],AUC (Docetaxel),IC50 (Docetaxel) [nM],AUC (Belinostat),IC50 (Belinostat) [nM]
"Hs766T (pancreas, adherent)",0.982,> 1000,0.786,1500,0.899,> 10000,0.984,> 2560,0.984,> 128,0.454,230,0.977,> 10000,0.978,> 1020,0.981,> 2000,0.983,> 20000,0.898,> 12.5,0.69,5120
"Ca-Ski (cervix, adherent)",0.686,222,0.513,175,0.826,7060,0.946,> 2560,0.572,12.9,0.032,< 20,0.962,> 10000,0.968,> 1020,0.976,> 2000,0.845,17200,0.464,0.617,0.333,404
"WM1552C (melanoma, adherent)",0.986,> 1000,0.785,1100,0.925,> 10000,0.971,> 2560,0.724,34.9,0.135,22.4,0.986,> 10000,0.95,> 1020,0.986,> 2000,0.983,> 20000,0.791,5.67,0.418,744
"PANC-02-03 (pancreas, adherent)",0.979,> 1000,0.706,692,0.904,> 10000,0.787,1350,0.927,> 128,0.087,< 20,0.948,> 10000,0.944,> 1020,0.915,> 2000,0.981,> 20000,0.713,3.56,0.361,475
"OE21 (oesophagus, adherent)",0.931,> 1000,0.538,212,0.778,5690,0.857,> 2560,0.973,> 128,0.19,25.4,0.887,> 10000,0.948,> 1020,0.958,> 2000,0.974,> 20000,0.604,1.68,0.576,2170
